Experimental data published in the supplement of paper PMC12217912.
Some of the results follow. The full chains were built here from the parent and the listed change. Values near 0.05 are background.

B1: TEV protease; numbered along this chain (parent)
chain: MGESLFKGPRDYNPISSSICHLTNESDGHTTSLYGIGFGPFIITNKHLFRRNNGTLVVQSLHGVFKVKDTTTLQQHLVDGRDMIIIRMPKDFPPFPQKLKFREPQREERICLVTTNFQTKSMSSMVSDTSCTFPSGDGIFWKHWIQTKDGQCGSPLVSTRDGFIVGIHSASNFTNTNNYFTSVPKNFMELLTNQEAQQWVSGWRLNADSVLWGGHKVFMVKPEEPFQPVKEATQL

Variants of: B1
Experiment: raw area under fraction-flipped curve 0-4 h after induction (AUC4h, not background-subtracted), DNA-recorder readout of cleavage of the substrate (dimensionless); higher = more cleavage of the substrate by the protease variant
Conditions: temperature: 34 °C; time window: 0-4 h after rhamnose induction
Description: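 In vivo DNA recorder in E. coli TOP10(DE3) ΔrhaA at 34 °C. Each TEVp single-site mutant (parent TEVp 0) is paired with a single-site variant of the 7-mer TEVs (canonical ENLYFQ|S). The substrate sits between flexible linkers in a Bxb1-sfGFP-TEVs-SsrA fusion, so cleavage stabilises Bxb1 and speeds flipping of a recombination array, read by NGS. The value is the raw area under the fraction-flipped curve over 0-4 h after rhamnose induction (AUC4h), with ≥20 reads per time point. It is not background-subtracted; inactive controls average about 0.047.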
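Also: Bxb1 expression induced with 0.2% (w/v) L-rhamnose at OD600 near 0.5, cultures sampled hourly, flipped fraction per protease–substrate barcode pair counted by paired-end Illumina sequencing.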

| Variant | area with substrate ENAYFQS | area with substrate ENCYFQS | area with substrate ENDYFQS | area with substrate ENEYFQS | area with substrate ENFYFQS | area with substrate ENGYFQS | area with substrate ENIYFQS | area with substrate ENKYFQS | area with substrate ENMYFQS | area with substrate ENNYFQS | area with substrate ENPYFQS | area with substrate ENQYFQS | area with substrate ENRYFQS | area with substrate ENSYFQS | area with substrate ENHYFQS | area with substrate ENVYFQS | area with substrate ENWYFQS | area with substrate ENYYFQS | area with substrate ENTYFQS |
| --- | --- | --- | --- | --- | --- | --- | --- | --- | --- | --- | --- | --- | --- | --- | --- | --- | --- | --- | --- |
| M83C | 0.053 | 0.0561 | 0.0675 | 0.0615 | 0.0616 | 0.0543 | 0.0787 | 0.069 | 0.0722 | 0.0648 | 0.0646 | 0.056 | 0.0593 | 0.0626 |  |  |  |  |  |
| M83G | 0.0531 |  | 0.0604 | 0.0488 | 0.048 | 0.0471 | 0.0693 | 0.0558 |  | 0.0373 | 0.0618 | 0.0571 | 0.0561 | 0.0709 | 0.043 | 0.0407 | 0.0587 | 0.0545 |  |
| S121P | 0.0739 | 0.0735 |  | 0.0575 |  | 0.0432 |  |  | 0.0881 | 0.0542 |  | 0.0646 | 0.0702 | 0.0818 | 0.0439 | 0.0789 | 0.0058 |  | 0.0732 |
| S121G | 0.0582 | 0.049 |  | 0.0679 |  | 0.0608 | 0.129 |  | 0.0694 | 0.0542 |  |  | 0.0799 | 0.0417 | 0.0624 | 0.0754 |  | 0.0585 | 0.0634 |
| L112R | 0.0634 | 0.056 | 0.0574 | 0.0496 | 0.0751 | 0.0665 |  | 0.0283 |  |  | 0.0524 | 0.0568 |  | 0.0559 | 0.0573 | 0.0574 | 0.0563 |  | 0.0743 |
| L112E | 0.0331 | 0.0509 | 0.0632 | 0.0591 | 0.061 |  | 0.0623 | 0.0489 | 0.0634 |  | 0.0504 | 0.0608 | 0.0679 |  | 0.061 | 0.0759 |  | 0.0568 | 0.0649 |
| F92Y | 0.0519 | 0.0485 | 0.0588 | 0.0634 | 0.0668 | 0.0593 | 0.155 |  |  |  |  | 0.065 |  | 0.0507 | 0.0428 | 0.0782 |  | 0.0614 | 0.0521 |
| F117R | 0.0649 |  | 0.0837 |  | 0.061 |  |  |  |  |  | 0.0505 | 0.0587 |  | 0.0643 | 0.059 | 0.0743 | 0.0489 |  |  |
| D82R | 0.0521 |  |  |  |  |  |  | 0.0599 |  | 0.0663 |  |  |  | 0.0724 |  |  |  |  | 0.0512 |
| D82G | 0.0456 | 0.0669 | 0.0675 | 0.0606 | 0.0575 | 0.0463 |  | 0.0621 | 0.0453 | 0.0559 | 0.0532 | 0.0626 |  | 0.0671 |  | 0.0511 |  |  | 0.0576 |
| E107G | 0.054 |  | 0.0872 | 0.0554 | 0.0826 |  | 0.0995 |  | 0.0918 |  | 0.0515 |  | 0.0271 | 0.0469 | 0.0559 | 0.0682 |  |  | 0.0563 |
| E107H | 0.0596 | 0.0544 |  | 0.0603 |  | 0.069 | 0.136 | 0.0638 | 0.0746 | 0.0825 |  | 0.066 | 0.0527 | 0.0546 | 0.0564 |  | 0.0032 | 0.0428 | 0.0639 |
| I84F | 0.0379 |  | 0.0654 |  | 0.0638 | 0.0476 | 0.0703 |  | 0.0669 | 0.0638 | 0.0519 | 0.0597 | 0.0518 |  | 0.0549 |  |  |  | 0.0593 |
